The list shows a part of the results.
How the values were obtained:
Assay in all cases: glycan array binding signal (z-score within array); higher = stronger binding
Settings in all cases: glycan notation: IUPAC condensed, linker removed
[1] = biological target: Neu5Ac(a2-6)Gal(b1-4)GlcNAc(b1-2)Man(a1-3)[GlcNAc(b1-4)][Neu5Ac(a2-6)Gal(b1-4)GlcNAc(b1-2)Man(a1-6)]Man(b1-4)GlcNAc(b1-4)GlcNAc
Summary of the method: (§1)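 Glycan array binding is given as a within-array Z-score, which can be read as non-binding when negative. The arrays, 3228 of them, came from the Consortium for Functional Glycomics database and were retained only where the protein sequence was available. Z-scores were averaged across arrays of the same protein sequence at different concentrations or buffers and across linkers.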

[2] = biological target: Neu5Ac(a2-6)Gal(b1-4)GlcNAc(b1-2)Man(a1-3)[Man(a1-6)]Man(b1-4)GlcNAc(b1-4)GlcNAc
Summary of the method: as §1

[3] = biological target: Neu5Ac(a2-6)Gal(b1-4)GlcNAc(b1-2)Man(a1-3)[Neu5Ac(a2-3)Gal(b1-4)GlcNAc(b1-2)Man(a1-6)]Man(b1-4)GlcNAc(b1-4)GlcNAc
Summary of the method: as §1

[4] = biological target: Neu5Ac(a2-6)Gal(b1-4)GlcNAc(b1-2)Man(a1-3)[Neu5Ac(a2-6)Gal(b1-4)GlcNAc(b1-2)Man(a1-6)]Man(b1-4)GlcNAc(b1-4)GlcNAc
Summary of the method: as §1

[5] = biological target: Neu5Ac(a2-6)Gal(b1-4)GlcNAc(b1-2)Man(a1-3)[Neu5Ac(a2-6)Gal(b1-4)GlcNAc(b1-2)Man(a1-6)]Man(b1-4)GlcNAc(b1-4)[Fuc(a1-6)]GlcNAc
Summary of the method: as §1

[6] = biological target: Neu5Ac(a2-6)Gal(b1-4)GlcNAc(b1-2)Man(a1-6)Man(b1-4)GlcNAc(b1-4)GlcNAc
Summary of the method: as §1

[7] = biological target: Neu5Ac(a2-6)Gal(b1-4)GlcNAc(b1-2)Man(a1-6)[Gal(b1-4)GlcNAc(b1-2)Man(a1-3)]Man(b1-4)GlcNAc(b1-4)GlcNAc
Summary of the method: as §1

[8] = biological target: Neu5Ac(a2-6)Gal(b1-4)GlcNAc(b1-2)Man(a1-6)[GlcNAc(b1-2)Man(a1-3)]Man(b1-4)GlcNAc(b1-4)GlcNAc
Summary of the method: as §1

[9] = biological target: Neu5Ac(a2-6)Gal(b1-4)GlcNAc(b1-2)Man(a1-6)[Man(a1-3)]Man(b1-4)GlcNAc(b1-4)GlcNAc
Summary of the method: as §1

[10] = biological target: Neu5Ac(a2-6)Gal(b1-4)GlcNAc(b1-2)[Neu5Ac(a2-6)Gal(b1-4)GlcNAc(b1-4)]Man(a1-3)[GlcNAc(b1-4)][Neu5Ac(a2-6)Gal(b1-4)GlcNAc(b1-2)[Neu5Ac(a2-6)Gal(b1-4)GlcNAc(b1-6)]Man(a1-6)]Man(b1-4)GlcNAc(b1-4)GlcNAc
Summary of the method: as §1

[11] = biological target: Neu5Ac(a2-6)Gal(b1-4)GlcNAc(b1-2)[Neu5Ac(a2-6)Gal(b1-4)GlcNAc(b1-4)]Man(a1-3)[GlcNAc(b1-4)][Neu5Ac(a2-6)Gal(b1-4)GlcNAc(b1-4)Man(a1-6)]Man(b1-4)GlcNAc(b1-4)GlcNAc
Summary of the method: as §1

[12] = biological target: Neu5Ac(a2-6)Gal(b1-4)GlcNAc(b1-2)[Neu5Ac(a2-6)Gal(b1-4)GlcNAc(b1-6)]Man(a1-6)[Neu5Ac(a2-6)Gal(b1-4)GlcNAc(b1-2)Man(a1-3)][GlcNAc(b1-4)]Man(b1-4)GlcNAc(b1-4)GlcNAc
Summary of the method: as §1

[13] = biological target: Neu5Ac(a2-6)Gal(b1-4)GlcNAc(b1-3)Gal(b1-3)GlcNAc
Summary of the method: as §1

[14] = biological target: Neu5Ac(a2-6)Gal(b1-4)GlcNAc(b1-3)Gal(b1-4)GlcNAc
Summary of the method: as §1

[15] = biological target: Neu5Ac(a2-6)Gal(b1-4)GlcNAc(b1-3)Gal(b1-4)GlcNAc(b1-2)Man(a1-3)[Neu5Ac(a2-6)Gal(b1-4)GlcNAc(b1-3)Gal(b1-4)GlcNAc(b1-2)Man(a1-6)]GalNAc
Summary of the method: as §1

[16] = biological target: Neu5Ac(a2-6)Gal(b1-4)GlcNAc(b1-3)Gal(b1-4)GlcNAc(b1-3)Gal(b1-4)GlcNAc
Summary of the method: as §1

[17] = biological target: Neu5Ac(a2-6)Gal(b1-4)GlcNAc(b1-3)Gal(b1-4)GlcNAc(b1-3)Gal(b1-4)GlcNAc(b1-2)Man(a1-3)[Neu5Ac(a2-6)Gal(b1-4)GlcNAc(b1-3)Gal(b1-4)GlcNAc(b1-3)Gal(b1-4)GlcNAc(b1-2)Man(a1-6)]GalNAc
Summary of the method: as §1

[18] = biological target: Neu5Ac(a2-6)Gal(b1-4)GlcNAc(b1-3)Gal(b1-4)GlcNAc(b1-3)GalNAc
Summary of the method: as §1

[19] = biological target: Neu5Ac(a2-6)Gal(b1-4)GlcNAc(b1-3)Gal(b1-4)GlcNAc(b1-3)[Neu5Ac(a2-6)Gal(b1-4)GlcNAc(b1-3)Gal(b1-4)GlcNAc(b1-6)]GalNAc
Summary of the method: as §1

[20] = biological target: Neu5Ac(a2-6)Gal(b1-4)GlcNAc(b1-3)Gal(b1-4)GlcNAc(b1-6)[Gal(b1-3)]GalNAc
Summary of the method: as §1

[21] = biological target: Neu5Ac(a2-6)Gal(b1-4)GlcNAc(b1-3)Gal(b1-4)[Fuc(a1-3)]GlcNAc(b1-3)Gal(b1-4)[Fuc(a1-3)]GlcNAc
Summary of the method: as §1

[22] = biological target: Neu5Ac(a2-6)Gal(b1-4)GlcNAc(b1-3)GalNAc
Summary of the method: as §1

[23] = biological target: Neu5Ac(a2-6)Gal(b1-4)GlcNAc(b1-3)[Neu5Ac(a2-6)Gal(b1-4)GlcNAc(b1-6)]GalNAc
Summary of the method: as §1

[24] = biological target: Neu5Ac(a2-6)Gal(b1-4)GlcNAc(b1-6)GalNAc
Summary of the method: as §1

[25] = biological target: Neu5Ac(a2-6)Gal(b1-4)GlcNAc(b1-6)[Gal(b1-3)GlcNAc(b1-3)]Gal(b1-4)Glc
Summary of the method: as §1

[26] = biological target: Neu5Ac(a2-6)Gal(b1-4)GlcNAc(b1-6)[Gal(b1-3)]GalNAc
Summary of the method: as §1

[27] = biological target: Neu5Ac(a2-6)Gal(b1-4)GlcNAc6S
Summary of the method: as §1

[28] = biological target: Neu5Ac(a2-6)GalNAc
Summary of the method: as §1

[29] = biological target: Neu5Ac(a2-6)GalNAc(b1-4)GlcNAc
Summary of the method: as §1

[30] = biological target: Neu5Ac(a2-6)GalNAc(b1-4)GlcNAc6S
Summary of the method: as §1

[31] = biological target: Neu5Ac(a2-6)GlcNAc(b1-4)GlcNAc
Summary of the method: as §1

[32] = biological target: Neu5Ac(a2-6)GlcNAc(b1-4)GlcNAc(b1-4)GlcNAc
Summary of the method: as §1

[33] = biological target: Neu5Ac(a2-8)Neu5Ac
Summary of the method: as §1

[34] = biological target: Neu5Ac(a2-8)Neu5Ac(a2-3)Gal(b1-3)GalNAc(b1-4)[Neu5Ac(a2-3)]Gal(b1-4)Glc
Summary of the method: as §1

[35] = biological target: Neu5Ac(a2-8)Neu5Ac(a2-3)Gal(b1-3)GalNAc(b1-4)[Neu5Ac(a2-8)Neu5Ac(a2-3)]Gal(b1-4)Glc
Summary of the method: as §1

[36] = biological target: Neu5Ac(a2-8)Neu5Ac(a2-3)Gal(b1-4)Glc
Summary of the method: as §1

[37] = biological target: Neu5Ac(a2-8)Neu5Ac(a2-3)Gal(b1-4)GlcNAc
Summary of the method: as §1

[38] = biological target: Neu5Ac(a2-8)Neu5Ac(a2-3)[Gal(b1-3)GalNAc(b1-4)]Gal(b1-4)Glc
Summary of the method: as §1

[39] = biological target: Neu5Ac(a2-8)Neu5Ac(a2-3)[GalNAc(b1-4)]Gal(b1-4)Glc
Summary of the method: as §1

[40] = biological target: Neu5Ac(a2-8)Neu5Ac(a2-8)Neu5Ac
Summary of the method: as §1

[41] = biological target: Neu5Ac(a2-8)Neu5Ac(a2-8)Neu5Ac(a2-3)Gal(b1-4)Glc
Summary of the method: as §1

[42] = biological target: Neu5Ac(a2-8)Neu5Ac(a2-8)Neu5Ac(a2-3)[Gal(b1-3)GalNAc(b1-4)]Gal(b1-4)Glc
Summary of the method: as §1

[43] = biological target: Neu5Ac(a2-8)Neu5Ac(a2-8)Neu5Ac(a2-3)[GalNAc(b1-4)]Gal(b1-4)Glc
Summary of the method: as §1

[44] = biological target: Neu5Ac(a2-8)Neu5Ac(a2-8)Neu5Ac(a2-8)Neu5Ac(a2-3)[GalNAc(b1-4)]Gal(b1-4)Glc
Summary of the method: as §1

[45] = biological target: Neu5Ac(a2-8)Neu5Gc(a2-3)Gal(b1-4)GlcNAc
Summary of the method: as §1

[46] = biological target: Neu5Ac(b2-6)Gal(b1-4)GlcNAc
Summary of the method: as §1

[47] = biological target: Neu5Ac(b2-6)GalNAc
Summary of the method: as §1

[48] = biological target: Neu5Ac9Ac(a2-3)Gal(b1-3)GlcNAc
Summary of the method: as §1

[49] = biological target: Neu5Ac9Ac(a2-3)Gal(b1-4)GlcNAc
Summary of the method: as §1

[50] = biological target: Neu5Ac9Ac(a2-6)Gal(b1-4)GlcNAc
Summary of the method: as §1

[51] = biological target: Neu5Gc(a2-3)Gal(b1-3)GlcNAc
Summary of the method: as §1

[52] = biological target: Neu5Gc(a2-3)Gal(b1-3)[Fuc(a1-4)]GlcNAc
Summary of the method: as §1

[53] = biological target: Neu5Gc(a2-3)Gal(b1-4)Glc
Summary of the method: as §1

[54] = biological target: Neu5Gc(a2-3)Gal(b1-4)GlcNAc
Summary of the method: as §1

[55] = biological target: Neu5Gc(a2-3)Gal(b1-4)GlcNAc(b1-3)Gal(b1-4)GlcNAc(b1-2)Man(a1-3)[Neu5Gc(a2-3)Gal(b1-4)GlcNAc(b1-3)Gal(b1-4)GlcNAc(b1-2)Man(a1-6)]Man(b1-4)GlcNAc(b1-4)GlcNAc
Summary of the method: as §1

[56] = biological target: Neu5Gc(a2-3)Gal(b1-4)[Fuc(a1-3)]GlcNAc
Summary of the method: as §1

[57] = biological target: Neu5Gc(a2-6)Gal(b1-4)GlcNAc
Summary of the method: as §1

[58] = biological target: Neu5Gc(a2-6)GalNAc
Summary of the method: as §1

[59] = biological target: Neu5Gc(a2-8)Neu5Ac(a2-3)Gal(b1-4)GlcNAc
Summary of the method: as §1

[60] = biological target: Neu5Gc(a2-8)Neu5Gc(a2-3)Gal(b1-4)GlcNAc
Summary of the method: as §1

[61] = biological target: Neu5Gc(a2-8)Neu5Gc(a2-3)Gal(b1-4)GlcNAc(b1-3)Gal(b1-4)GlcNAc
Summary of the method: as §1

[62] = biological target: Neu5Gc(a2-8)Neu5Gc(a2-6)Gal(b1-4)GlcNAc
Summary of the method: as §1

[63] = biological target: Neu5Gc(b2-6)Gal(b1-4)GlcNAc
Summary of the method: as §1

Measured: glycan array binding signal (z-score)

B1: LBL-152 (Laetiporus bicolor), B0D650 (protein)
chain: MSNEYNPPLGIAFRLCGLASDRVLFSRVSPSPEVFHHPKSEVYPDQWFVAIPGSGQNAGCYAIKSKNTGKVLFSRMSPDPRVGHIDGDGKYPDNWFKFEAGSGKYAGYFRLRAVASDTVLVSRTSTGTDTQVINYPATSAKYDDQYFTILFDHHHHHH
-0.145: [5] | [33]
-0.158: [11] | [26]
-0.154: [14] | [20] | [23] | [25] | [34] | [45] | [63]
-0.165: [47]
-0.159: [7] | [43] | [50] | [51]
-0.127: [55]
-0.152: [9] | [18] | [22] | [40]
-0.129: [15]
-0.155: [6] | [10] | [12] | [13] | [37] | [39] | [42] | [48] | [59]
-0.16: [29] | [57]
-0.144: [41]
-0.134: [17]
-0.153: [4] | [21] | [27] | [31] | [49] | [53] | [58]
-0.156: [3]
-0.151: [19] | [24] | [30] | [44] | [56]
-0.157: [2] | [8] | [28] | [36] | [38] | [61]
-0.163: [62]
-0.162: [54]
-0.161: [1] | [32] | [46] | [60]
-0.146: [16] | [52]
-0.143: [35]
